According to the supplement of paper PMC4604168 (melanoma cell lines):
Some of the results follow. Most values come without repeats; read them as rough.

Key:
Assay in all cases: cell count relative to DMSO control; melanoma cells; higher = more viable cells
Conditions in all cases: library dose: low library concentration; 72 h
[1] = test system: WM115
[2] = test system: WM1716
[3] = test system: WM1745
[4] = test system: WM3526
[5] = test system: WM3619
[6] = test system: WM451Lu
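Note: cell number obtained by counting DAPI-stained nuclei in high-throughput microscope images with image analysis software, screen run in 1,536-well plates.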

| SMILES | cell count [1] | cell count [2] | cell count [3] | cell count [4] | cell count [5] | cell count [6] |
| --- | --- | --- | --- | --- | --- | --- |
| C[As](C)SC[C@H](NC(=O)CC[C@H](N)C(=O)O)C(=O)NCC(=O)O [Darinaparsin] + O=C(CCCCCCC(=O)Nc1ccccc1)NO [vorinostat] (first compound 0.4 µM, partner dose 0.08 µM) | 107% | 112% | 120% | 96.6% | 104% | 80.3% |
| C[As](C)SC[C@H](NC(=O)CC[C@H](N)C(=O)O)C(=O)NCC(=O)O [Darinaparsin] + COc1ccc(Cl)c(Nc2nc3ccccc3nc2NS(=O)(=O)c2cccc(NC(=O)C(C)(C)N)c2)c1 [XL147] (first compound 0.4 µM, partner dose 0.8 µM) | 99.7% | 94.8% | 91.3% | 86% | 90.9% | 89% |
| N.N.[Cl][Pt][Cl] [cisplatin] + COc1ccc(-c2ccc3c(N4CCOCC4)nc(N4C[C@@H](C)O[C@@H](C)C4)nc3n2)cc1CO [KU0063794] (first compound 1.6 µM, partner dose 0.02 µM) | 88.5% | 103% | 88.1% | 93.7% | 88.1% | 128% |
| C[C@]12O[C@H](C[C@]1(O)CO)n1c3ccccc3c3c4c(c5c6ccccc6n2c5c31)CNC4=O [Lestaurtinib] + Clc1ccc(Nc2nnc(Cc3ccncc3)c3ccccc23)cc1 [vatalanib] (first compound 0.004 µM, partner dose 2 µM) | 94.3% | 102% | 101% | 102% | 103% | 163% |
| N.N.[Cl][Pt][Cl] [cisplatin] + Oc1nc(-c2ccc(C(F)(F)F)cc2)nc2c1CSCC2 [XAV939] (first compound 1.6 µM, partner dose 2 µM) | 91.9% | 63.2% | 95.1% | 87.3% | 79.2% | 93.2% |
| C[C@]12O[C@H](C[C@]1(O)CO)n1c3ccccc3c3c4c(c5c6ccccc6n2c5c31)CNC4=O [Lestaurtinib] + Cc1cc(N2CCOCC2)cc2[nH]c(-c3c(NC[C@@H](O)c4cccc(Cl)c4)cc[nH]c3=O)nc12 [BMS536924] (first compound 0.004 µM, partner dose 0.2 µM) | 106% | 89.1% | 82.8% | 61.1% | 140% | 61.7% |
| Cn1cc(C2=C(c3cn(C4CCN(Cc5ccccn5)CC4)c4ccccc34)C(=O)NC2=O)c2ccccc21 [Enzastaurin] + O=S(=O)(c1ccccc1)N(CC(F)(F)F)c1ccc(C(O)(C(F)(F)F)C(F)(F)F)cc1 [T0901317] (first compound 0.8 µM, partner dose 1.4 µM) | 105% | 94.5% | 84.3% | 103% | 89.1% | 98.4% |
| C[C@]12O[C@H](C[C@]1(O)CO)n1c3ccccc3c3c4c(c5c6ccccc6n2c5c31)CNC4=O [Lestaurtinib] + C[C@]1(c2nc3c(C(N)=O)cccc3[nH]2)CCCN1 [Veliparib] (first compound 0.004 µM, partner dose 1.4 µM) | 94.3% | 94% | 85.9% | 95.4% | 98.8% | 116% |
| C[C@]12O[C@H](C[C@]1(O)CO)n1c3ccccc3c3c4c(c5c6ccccc6n2c5c31)CNC4=O [Lestaurtinib] + COc1cc2ncnc(Nc3ccc(Oc4ccccc4)cc3)c2cc1OC [SrcI1] (first compound 0.004 µM, partner dose 2 µM) | 104% | 130% | 90.4% | 93.2% | 104% | 98.8% |
| Cn1cc(C2=C(c3cn(C4CCN(Cc5ccccn5)CC4)c4ccccc34)C(=O)NC2=O)c2ccccc21 [Enzastaurin] + COCC[n+]1c2c(n(Cc3cnccn3)c1C)C(=O)c1ccccc1C2=O [YM155] (first compound 0.8 µM, partner dose 0.0004 µM) | 107% | 85.5% | 99.7% | 72.3% | 110% | 66.4% |
| C[As](C)SC[C@H](NC(=O)CC[C@H](N)C(=O)O)C(=O)NCC(=O)O [Darinaparsin] + CN(NC(=O)CC(=O)NN(C)C(=S)c1ccccc1)C(=S)c1ccccc1 [STA4783] (first compound 0.4 µM, partner dose 0.006 µM) | 74% | 72.6% | 34.4% | 99.2% | 69.4% | 110% |
| Cn1cc(C2=C(c3cn(C4CCN(Cc5ccccn5)CC4)c4ccccc34)C(=O)NC2=O)c2ccccc21 [Enzastaurin] + O=C(Nc1ccccc1)c1cc([N+](=O)[O-])ccc1Cl [GW9662] (first compound 0.8 µM, partner dose 2 µM) | 99.2% | 119% | 93.9% | 113% | 96% | 116% |
